# In PubChem BioAssay AID1345083 (National Center for Advancing Translational Sciences (NCATS), 2018):
# Among all 94,000 compounds or so, about 6,200 (6.6%) were called active. Inconclusive means that the source gave no clear call. Such entries were picked first, then a sample of the others. Calls follow the shape of the dose curve; as a rule, active = well fitted inhibition curve with a large enough effect; inconclusive = small, poorly fitted or top-dose-only effect; inactive = flat fitted curve, though single readings scatter. A potency beside an inconclusive call is a rough fit, not a confirmed value.
# Test: Cytotoxic Profiling in HEK 293 Cell Line of Diverse Libraries Using Quantitative High-Throughput Screening; also: nearly all actives have a fitted effect of over 60% in size
# Settings: HEK 293 viability, ATP luminescence (CellTiter-Glo), 48-72 h; activity change, negative = cytotoxicity: at 115 µM (top of the series) unless noted; series mostly up to 115 µM
# Outline: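 Cytotoxicity was scored by loss of ATP-coupled luminescence (CellTiter-Glo) in HEK 293 cells. Compound treatment ran 48 or 72 hr at 37 degree Celsius, 5% CO2, 95% humidity.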
# % is scaled to controls: 0 for no effect and ±100 for the full control effect; potency is read from the fitted curve at half-maximal effect; tags tell the direction and shape of the fitted curve.
Structure (SMILES),"activity change, negative = cytotoxicity",Potency,outcome
CN(Cc1ccccc1)Cc1cn([C@H]2CO[C@H]3[C@@H]2OC[C@@H]3NC(=O)c2ccco2)nn1,inactive: -25.9% [at 172 µM],,
O=C(c1ccc2c(c1)OCO2)N1CCCN(c2cc(-c3ccccc3)[nH]n2)CC1,,"inconclusive: 89.1 µM [inhibitor, single point]",
O=C1Nc2ccccc2OCC12CCN([S+](=O)([O-])c1ccccc1)CC2,,"inconclusive: 11.2 µM [inhibitor, full curve]",
CN1CCC2(Cc3ccccc3CN(C(=O)Cc3cccc(Cl)c3)C2)C1 (configuration not stated),,"inconclusive: 79.4 µM [inhibitor, partial curve]",
O=C(c1ccc(C(F)(F)F)cc1)N1CCN(C2CCN(Cc3cccnc3)C2=O)CC1 (configuration not stated),inactive: -29.3%,,
CCOc1ccc(CN2C[C@@H]3C(=O)N(Cc4ccc5c(c4)OCO5)C(=O)[C@@H]3C2)cc1,,"inconclusive: 89.1 µM [inhibitor, partial curve, poor fit]",
COc1ccc(-c2ccc3ncc(Nc4ccccc4Cl)n3n2)cn1,,"inconclusive: 39.8 µM [inhibitor, full curve, poor fit]",
COC(=O)[C@@H]1Cc2ncn(Cc3ccc(OC)cc3)c2CN1S(C)(=O)=O,inactive: -6.58% [at 172 µM],,
Cn1ncc2c(C(=O)NCCc3ccccc3F)cc(-c3ccsc3)nc21,inactive: -3.06%,,
CC(C)(C)c1cnc([C@@H]2COCCN2Cc2ccccc2O)[nH]1,inactive: -19.5% [at 172 µM],,
CCOc1ccc(C(=O)N2CCCC(n3cc(-c4nc(C5CC5)no4)nn3)C2)cc1 (configuration not stated),,"inconclusive: 89.1 µM [inhibitor, single point]",
Cc1nc(N2CCC(C(=O)NCCc3ccccc3)CC2)cc(C(F)(F)F)n1,,"inconclusive: 44.7 µM [inhibitor, partial curve]",
C=CCNC(=O)N1CCC(C2CCN(Cc3cccc(F)c3F)CC2)C1 (configuration not stated),,"inconclusive: 25.1 µM [inhibitor, full curve, poor fit]",
O=C1Cc2c(-c3cccc(N4CCOCC4)c3)n[nH]c2CN1CCOc1ccccc1,,"inconclusive: 35.5 µM [inhibitor, full curve, poor fit]",
COc1ccc2nc([C@H]3CCN(Cc4ccc(NC(C)=O)cc4)C3)[nH]c2c1,inactive: -26.9% [at 172 µM],,
Cc1ccc(-c2cc(-c3cccnc3)c3cncn3c2)cn1,,"inconclusive: 126 µM [inhibitor, partial curve]",
CNC(=O)c1cc(C2CC2)nc2c1c(C1CCCN([S+](=O)([O-])C(C)C)C1)nn2C (configuration not stated),inactive: -18.1%,,
COc1ccc(S(=O)(=O)N2C[C@@H]3C[C@H](C2)c2ccc(-c4cccc(C(F)(F)F)c4)c(=O)n2C3)cc1,,"inconclusive: 25.1 µM [inhibitor, full curve]",
Cc1cc(C(=O)N2CCCCCCNC(=O)[C@@H]3C[C@@H](c4nc(-c5cccnc5)no4)C[C@@H]32)nn1C,,,inactive
O=C(NCCc1ccccc1)c1ccc2oc(-c3ccnc(Cl)c3)nc2c1,inactive: -11.8%,,
O=C(c1cccc(F)c1)N1CCN(C(=O)c2nnn3c2COC(c2ccccc2)C3)CC1 (configuration not stated),,"inconclusive: 44.7 µM [inhibitor, partial curve, poor fit]",
O=C(c1ccncc1)N1CCCC2(CN[S+](=O)([O-])c3cccnc3N2)C1 (configuration not stated),,,inactive
O=c1c2nc(Nc3cccc(F)c3)ccc2ncn1Cc1ccccc1,,active: 79.4 µM,

Structure (SMILES),"activity change, negative = cytotoxicity",Potency,outcome
Cc1ccc(SC2CCN(Cc3nc(CCc4ccccc4)no3)CC2)cc1,,"inconclusive: 56.2 µM [inhibitor, partial curve, poor fit]",
NC(=O)Cc1c[nH]c2ncc(-c3ccc(Oc4ccccc4)cc3)cc12,,active: 35.5 µM,
COCCN1C(=O)c2ccccc2C(C(=O)NCCc2c[nH]c3ccccc23)C12CCCC2 (configuration not stated),,"inconclusive: 50.1 µM [inhibitor, partial curve, poor fit]",
F[C@@H]1CN(Cc2ccc3c(c2)OCCO3)C[C@@H]1OCc1nc2ccccc2[nH]1,,"inconclusive: 112 µM [inhibitor, partial curve, poor fit]",
COc1ccc(Cn2c(=O)c(C(=O)NCc3ccc(C(F)(F)F)cc3)nc3cccnc32)cc1,,"inconclusive: 50.1 µM [inhibitor, partial curve, poor fit]",
Clc1cnccc1CN1CCNc2cc(-c3ccccc3)ncc2C1,,"inconclusive: 35.5 µM [inhibitor, partial curve, poor fit]",
Cc1ccc(CN2CCCN(S(=O)(=O)c3ccccc3)CCC(=O)NCC2)s1,,"inconclusive: 89.1 µM [inhibitor, single point]",
O=C(c1cccc(F)c1)N1CC(Oc2cccc(-c3nc(-c4ccccc4)no3)c2)C1,,"inconclusive: 44.7 µM [inhibitor, partial curve, poor fit]",
CNC(=O)c1cc(C)nc2onc(C3CCN(C(=O)c4cccnc4)C3)c12 (configuration not stated),inactive: 2.66%,,
COCCNC(=O)c1ccc(OC2CCN(C/C=C/c3ccco3)CC2)c(Cl)c1,,"inconclusive: 50.1 µM [inhibitor, partial curve, poor fit]",
COc1ccc(-c2noc(CN(C)CCOc3ccc(C)cc3)n2)c(OC)c1OC,,"inconclusive: 39.8 µM [inhibitor, partial curve, poor fit]",
Cn1ncc2c(C(=O)NC3CCCCC3)cc(-c3ccc(F)cc3)nc21,,,inactive [at 172 µM]
C#CCN(C)C(=O)[C@@H](C)C1CC[C@@]2(C)Cc3sc(NC(=O)C4CC4)nc3[C@@H](C)[C@@H]2[C@H]1O (some centres not stated),,"inconclusive: 112 µM [inhibitor, partial curve]",
COc1ccc(-c2ccnc(-c3nnc(C)n3CCN3CCOCC3)c2)cc1OC,inactive: -25.4% [at 172 µM],,
OC[C@@H]1CNC[C@H]1C1CCN(Cc2ccc(Br)cc2F)CC1,,"inconclusive: 50.1 µM [inhibitor, partial curve, poor fit]",
Cn1nccc1C(=O)NCC1Cn2cccc2C(=O)N1Cc1ccccc1 (configuration not stated),inactive: 2.12%,,
CC1(C)[C@H](Cc2cc(COc3ccccc3)on2)C[C@@H]1NC(=O)Nc1ccccc1,,"inconclusive: 44.7 µM [inhibitor, full curve]",
O=C(NCCc1ccccc1)c1ccc2nnc(-c3ccc(F)cc3)n2c1,inactive: -24.1%,,
CC(C)Cn1c(=O)c(C(=O)N2CCN(C(=O)Nc3ccccc3)CC2)nc2cccnc21,,,inactive
O=C1CCC2(CCN1)CCN(C(=O)C1CCCCC1)CC2,inactive: 5.1%,,
Cc1ccsc1C(=O)N1CCN(c2cc(-c3ccccc3)[nH]n2)CC1,,"inconclusive: 50.1 µM [inhibitor, partial curve, poor fit]",
O=C(C[C@@H]1C[C@H]2O[C@H](CNC3CCCCC3)[C@@H](O)[C@H]2O1)N1CCC(F)(F)C1,,,inactive [at 172 µM]
COc1ccc(-c2cn3cc(C(=O)N4CCN(C(C)=O)CC4)nc3s2)cc1,inactive: -8.52%,,

Structure (SMILES),"activity change, negative = cytotoxicity",Potency,outcome
COCC1CCCN(Cc2nc(C(c3ccccc3)c3ccccc3)no2)C1 (configuration not stated),,"inconclusive: 35.5 µM [inhibitor, full curve]",
O=C(Nc1cccc(-c2ccc(N3CCCC3)nn2)c1)Nc1c(F)cccc1F,,"inconclusive: 56.2 µM [inhibitor, partial curve, poor fit]",
O=C(NCCc1ccncc1)c1cccc2c1CCN2C(=O)Nc1ccc(F)cc1,,"inconclusive: 39.8 µM [inhibitor, partial curve, poor fit]",
COc1ccc(-c2nc(C3CC(=O)N(C4CCCCC4)C3)no2)c(C)c1 (configuration not stated),,"inconclusive: 50.1 µM [inhibitor, partial curve, poor fit]",
CCCn1c(C)cnc1C1CCN(C(=O)Nc2ccccc2OCC)C1 (configuration not stated),inactive: -19.7%,,
OCC1(CN2CCCC2)CCN(Cc2cc(F)cc(Cl)c2)CC1,,"inconclusive: 50.1 µM [inhibitor, partial curve, poor fit]",
N#Cc1ccc(CNC(=O)[C@@H]2Cc3nc[nH]c3CN2Cc2cc3ccccc3o2)cc1,,"inconclusive: 126 µM [inhibitor, single point]",
Cc1ccc(-c2cc(N3CCC(CNC(=O)c4ccc5nc[nH]c5c4)CC3)n[nH]2)cc1,,"inconclusive: 56.2 µM [inhibitor, partial curve, poor fit]",
Cc1cc2nc(CO[C@H]3CN(C4CCC4)C[C@H]3F)[nH]c2cc1C,inactive: -19.3% [at 172 µM],,
Cc1ncoc1C(=O)NCc1cc(Cl)cc2c(C)c(-c3ccccc3)[nH]c12,,"inconclusive: 39.8 µM [inhibitor, partial curve, poor fit]",
Cn1cc(CN(C(=O)c2ccc3nc(-c4ccccc4)cn3c2)C2CC2)cn1,,"inconclusive: 89.1 µM [inhibitor, single point]",
CCc1nc2c(c(-c3ccc(O)cc3)n1)CN(CCC(C)C)CC2,inactive: -29.2% [at 172 µM],,
O=C1CC(c2nc(-c3ccc4nc[nH]c4c3)no2)CN1C1CC1 (configuration not stated),inactive: -8.63%,,
N#Cc1cccc(C(=O)N[C@H]2[C@H](O)[C@H](O)C[C@@H]2c2cccnc2)c1,inactive: -7.89% [at 172 µM],,
O=C(c1cc(C2CC2)nc2onc(C3CCCN3)c12)N1CCOCC1 (configuration not stated),inactive: -14.2%,,
O=C1COc2ccc(N3CCOCC3)nc2CN1Cc1ccc(F)cc1,,"inconclusive: 89.1 µM [inhibitor, partial curve]",
Cc1nn(-c2ccccc2)c2c1C(C(C)C)N(C1CCCN(C(=O)N(C)C)C1)C2=O (configuration not stated),inactive: -1.79%,,
O=C(c1cccc2[nH]ccc12)N1CCC(n2cc(-c3nc(-c4ccccc4)no3)nn2)C1 (configuration not stated),,"inconclusive: 22.4 µM [inhibitor, full curve, poor fit]",
CC(=O)N1CCc2nn(CC(=O)Nc3cccc(C)c3)c(=O)cc2C1,inactive: 12.6%,,
Cn1ncc(N2CCCC(CC(=O)Nc3cccc(Cl)c3)C2)cc1=O (configuration not stated),,"inconclusive: 44.7 µM [inhibitor, full curve, poor fit]",
COc1cccc(CN2CCC3(Cc4ccccc4NC3=O)C2)c1 (configuration not stated),,"inconclusive: 126 µM [inhibitor, single point]",
